Results reported in PubChem BioAssay (NCI).
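Step 1: Grow cells in 96-well plates. Step 2: Expose to compound for 48 hours at 5 concentrations. Step 3: Interpolate endpoints linearly; if unreached, use highest concentration. GI50 is the concentration that inhibits growth by half. TGI denotes the concentration required for complete inhibition of growth.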

Tested on: NCI-H322M lung
Assay: DTP human tumour cell line panel, 48 h

Work on `CCC(C)(C)c1ccc(OCCCCN2CCN(c3ccncc3)CC2)cc1` yielded a GI50 of 15.2 µM and a TGI of 28.5 µM.

For `COc1ccc(C2(SCCNCc3cc(N(C)C)ccn3)c3ccccc3C=Cc3ccccc32)cc1`, the GI50 was 0.099 µM and the TGI was 17 µM.
